Among all 420,000 compounds or so, about 50,000 (12%) were called active. The shares of active, inactive and inconclusive entries below differ from those in the screen. Calls follow the shape of the dose curve; as a rule, active = well fitted inhibition curve with a large enough effect; inconclusive = small, poorly fitted or top-dose-only effect; inactive = flat fitted curve, though single readings scatter. Potencies of inconclusive entries are left out as doubtful fits.
Experiment: qHTS for Inhibitors of human tyrosyl-DNA phosphodiesterase 1 (TDP1): qHTS in cells in presence of CPT; also: nearly all actives have a fitted effect of over 55% in size
Conditions: chicken DT40 Tdp1-/-;hTDP1 cells + 20 nM CPT, ATP luminescence, 48 h; activity change, negative = growth inhibition: at 46.2 µM (top of the series)
Outline: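 Chicken DT40 Tdp1-/- cells complemented with human TDP1, 400 cells/well, exposed to compounds plus 20 nM camptothecin for at least 48 h at 37 C; viability read as ATP content by CellTiter-Glo luminescence.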
% is scaled to controls: 0 for no effect and ±100 for the full control effect; potency is read from the fitted curve at half-maximal effect; tags tell the direction and shape of the fitted curve.

| SMILES | Potency | activity change, negative = growth inhibition |
| --- | --- | --- |
| Clc1ccc(C2CC(c3cccs3)n3ncnc3N2)c(Cl)c1 (stereo not drawn) | inconclusive [inhibitor, single point] | – |
| Cc1ccc(-n2nc3c(=O)n(C(C)C(=O)NCCCc4ccccc4)nc(C)c3c2C)cc1 (stereo not drawn) | active: 16.4 µM | – |
| Cc1ccc(/C=C/C(=O)Nc2ccc([N+](=O)[O-])c(NC(=O)/C=C/c3ccc(C)o3)c2)o1 | active: 11.6 µM | – |
| CC(=O)c1ccc(NC(=O)CCCSc2nc(-c3ccco3)cc(C(F)(F)F)n2)cc1 | active: 23.1 µM | – |
| COc1cccc(OC)c1C(=O)Nc1ccccc1C(=O)N1CCOCC1 | inactive | – |
| FC(F)(F)c1cc(Cl)c2nc(-c3ccc(Cl)cc3)c(Cc3ccsc3)n2c1 | inactive | – |
| Cc1ccc(OCCCCn2cnc3ccccc32)c(C)c1 | active: 13 µM | – |
| CC(/C=N/NC(=O)c1cc(-c2ccc(C)s2)[nH]n1)=C\c1ccccc1 | active: 8.2 µM | – |
| CC(=O)NCCNc1nc(-c2c(C)noc2C)nc2ccccc12 | inactive | – |
| Cc1ccc(CN(C(=O)COc2ccc(Br)cc2)C2CCS(=O)(=O)C2)o1 (stereo not drawn) | inconclusive [inhibitor, single point] | – |
| Cc1ccc(CNC(=O)CN2C(=O)NC(C)(c3ccc(Cl)cc3)C2=O)cc1 (stereo not drawn) | inactive | – |
| CCOc1ccc(S(=O)(=O)/N=C(/c2ccccc2)N(C)C)cc1 | inconclusive [inhibitor, partial curve, poor fit] | – |
| CSCc1nc2sc(C(=O)Nc3nc(C)cs3)c(C)c2c(=O)[nH]1 | inconclusive [inhibitor, single point] | – |
| COC(=O)[C@]12CCCCC=C1N(Cc1ccco1)C(=O)[C@H](CC(=O)NCc1ccc(C)o1)C2 | inconclusive [inhibitor, single point] | – |
| Cc1ccccc1-n1c(Cn2c(=O)sc3ccccc32)nnc1SCC(=O)N1CCCC1 | inactive | – |
| O=S1(=O)CCN(Cc2ccccc2)CC1 | inactive | – |
| O=C1CCCN1C1CCN(Cc2ccccc2)S(=O)(=O)N1 (stereo not drawn) | inactive | – |
| CC(NC(=O)CN1C(=O)NC2(CCCCCC2)C1=O)c1ccccc1Cl (stereo not drawn) | inactive | – |
| COc1ccccc1NC(=O)CCN1CCCCC1 | inactive | – |
| CC(=O)c1sc(NC(=O)CCCOc2ccc(Cl)cc2)nc1C | inactive | – |
| CCOC(=O)c1c(C)[nH]c(CCC(=O)NCc2ccccc2Cl)c1C | inconclusive [inhibitor, single point] | – |
| COc1ccc(-c2c3c(=O)n(C)c(=O)n(C)c3cn2C2CCCCC2)cc1 | inconclusive [inhibitor, single point] | – |
| COc1ccc(CCNC(=O)C2CCCN(S(=O)(=O)c3cc(C)ccc3OC)C2)cc1OC (stereo not drawn) | inconclusive [inhibitor, single point] | – |
| COC(=O)c1ccccc1NC(=O)c1ccc(-c2ccc(Br)cc2)o1 | inactive | – |
| COc1ccc(-c2ccc3c(c2)c(-c2cccs2)c(-c2cc(OC)cc(OC)c2)n3C)cc1 | inconclusive [inhibitor, single point] | – |
| CS(=O)(=O)c1ccc(C(=O)Nc2cc(-c3ccccc3)nn2-c2ccccc2)cc1 | inconclusive [inhibitor, single point] | – |

| SMILES | Potency | activity change, negative = growth inhibition |
| --- | --- | --- |
| Cc1ccccc1NC(=O)CON=C(N)c1ccccc1 | inactive | – |
| CC(C)(C)c1cc(OC(=O)C2CCCC2)ccc1O | active: 5.17 µM | – |
| CC(=O)Nc1ccc(S(=O)(=O)NCCSCc2cccc(Cl)c2)cc1 | inconclusive [inhibitor, single point] | – |
| Nc1cccnc1S(=O)(=O)c1cccc(C(F)(F)F)c1 | inconclusive [inhibitor, single point] | – |
| Cc1n[nH]c(C)c1S(=O)(=O)N1CCCC(C(=O)NC2CCCc3ccccc32)C1 (stereo not drawn) | active: 20.6 µM | – |
| CCC(C)/C(C)=N/NC(=O)CNS(=O)(=O)c1ccc([N+](=O)[O-])cc1 (stereo not drawn) | inconclusive [inhibitor, single point] | – |
| Cc1ccc(NC(=O)c2cc([N+](=O)[O-])ccc2Cl)c(O)c1 | inactive | – |
| Cc1ccc(C(=O)Nc2ccc(N3CCN(C)CC3)cc2)c(Cl)c1 | inactive | – |
| CCOC(=O)C1CCCCN1Cc1cccc(F)c1 (stereo not drawn) | inactive | – |
| COc1ccc(Br)cc1S(=O)(=O)N1CCCc2ccccc21 | inactive | – |
| CC(=O)N1c2ccc(S(=O)(=O)NCCC(=O)Nc3ccccc3C)cc2CC1C (stereo not drawn) | inconclusive [inhibitor, single point] | – |
| CCCOc1ccc(N2CC(C(=O)Nc3ccccc3C(=O)NC)CC2=O)cc1 (stereo not drawn) | inconclusive [inhibitor, single point] | – |
| CN(C(=O)CSc1nnc(-c2ccc(Cl)cc2)n1CC1CCCO1)C1CCS(=O)(=O)C1 (stereo not drawn) | inactive | – |
| CCOc1ccc(CN2CCC(Cc3ccccc3)CC2)cc1 | inconclusive [inhibitor, single point] | – |
| O=C(/C=C/c1cccs1)Nc1ccc(N2CCOCC2)c(S(=O)(=O)Nc2ccccc2Cl)c1 | inconclusive [inhibitor, single point] | – |
| COc1ccc(CN2CC(=O)N(c3ccc(C)c(C)c3)C2=S)cc1OC | inactive | – |
| COc1ccc(NC(=O)CCCN2C(=O)CCn3nc(-c4cn(C)c5ccccc45)cc32)cc1OC | active: 18.4 µM | – |
| O=C(Nc1ccc(N2CCCCC2)c(Cl)c1)c1cccnc1 | inconclusive [inhibitor, single point] | – |
| Cc1ccc(N(C)C(=O)C2CCN(S(=O)(=O)c3c(C)noc3/C=C/c3c(C)cc(C)cc3C)CC2)cc1 | inconclusive [inhibitor, single point] | – |
| CCOC(=O)c1cc(NC(=O)c2ccoc2C)cc(C(=O)OCC)c1 | inconclusive [inhibitor, single point] | – |
| COC(=O)CSc1nc(C)cc(C)c1C#N | inactive | – |
| N#C/C(=C\c1cccc(OC(=O)c2cccs2)c1)C(N)=O | inconclusive [inhibitor, single point] | – |
| CC(=O)Nc1ccc(S(=O)(=O)NCCC(=O)NCCCc2ccccc2)cc1 | inactive | – |
| COc1cccc(OCCSc2nc(C)c(Cc3ccccc3)c(=O)[nH]2)c1 | – | inconclusive: -35.9% [inhibitor] |
| O=Nc1c2ccc[nH]c-2c2ccc([N+](=O)[O-])cc12 | inactive | – |
| COc1cc(CN2CCN(Cc3ccc(C(F)(F)F)cc3)CC2)cc(OC)c1OC | active: 23.1 µM | – |

| SMILES | Potency | activity change, negative = growth inhibition |
| --- | --- | --- |
| Cc1cccc(C(=O)NCC(=O)OCc2cc(=O)n3nc(C4CCCCC4)sc3n2)c1 | inactive | – |
| COc1cccc(NC2C=CS(=O)(=O)C2)c1 (stereo not drawn) | inactive | – |
| CCOC(=O)c1cccc(NC(=O)CC2C(=O)N(c3ccc(OC)cc3)C(=O)N2C2CCCC2)c1 (stereo not drawn) | active: 23.1 µM | – |
| COc1ccc(S(=O)(=O)N2CCOCC2)cc1NC(=O)C1CCN(S(=O)(=O)c2ccc(Cl)cc2)CC1 | inactive | – |
| CCCCC(=O)Nc1c(C)cc(C)cc1Cl | inactive | – |
| CCS(=O)(=O)N1CCN(S(=O)(=O)c2ccc3c(c2)OCCO3)CC1 | inactive | – |
| C[C@@H]1CCCCO[C@H](CN(C)C(=O)Cc2ccccc2)[C@@H](C)CN([C@H](C)CO)C(=O)c2cc(NC(=O)Nc3ccccc3)ccc2O1 | inactive | – |
| Cc1cccc(N2CCN(S(=O)(=O)c3ccc4[nH]c5c(c4c3)CCCCC5)CC2)c1C | inconclusive [inhibitor, single point] | – |
| CC1Cc2ccccc2N1C(=O)COC(=O)C1(c2ccccc2F)CCCC1 (stereo not drawn) | inconclusive [inhibitor, single point] | – |
| OCCNc1cc(-n2nc(-c3ccccc3)cc2-c2ccccc2)ncn1 | inconclusive [inhibitor, single point] | – |
| COc1cccc(NC(=O)C2=C(C)C(=O)OC23CCN(C(C)=O)CC3)c1 | inactive | – |
| CC1CC(C)CN(S(=O)(=O)c2cccc3nsnc23)C1 (stereo not drawn) | inconclusive [inhibitor, partial curve] | – |
| Cn1c(CCN2CCCCC2)nc2cc([N+](=O)[O-])ccc21 | inconclusive [inhibitor, single point] | – |
| CC(=O)c1ccc(N2CCN(C(=O)c3cn(Cc4ccccc4)nc3-c3cccnc3)CC2)c(F)c1 | inconclusive [inhibitor, single point] | – |
| O=C(NCCNC(=O)c1ccccc1O)c1ccccc1O | – | inconclusive: -32% [inhibitor] |
| O=C(c1cc(-c2ccco2)on1)N1CCN(C(c2ccccc2)c2ccccc2)CC1 | active: 15.8 µM | – |
| CCN(CC)C(=O)C1=C(C)N(Cc2ccc(C(C)(C)C)cc2)C(=O)C(CC(=O)NCCN2CCOCC2)C1 (stereo not drawn) | inactive | – |
| COc1ccccc1C(=O)Nc1cc2c(cc1N1CCCC1)n(C)c(=O)c(=O)n2C | inactive | – |
| CN(C)c1ccc(CNc2ccccn2)cc1 | inactive | – |
| O=C(O)c1ccccc1C(=O)c1ccc2oc(=O)[nH]c2c1 | inactive | – |
| Cc1cc2cc(CN(Cc3cccs3)C(=S)NCC3CCCO3)c(=O)[nH]c2cc1C (stereo not drawn) | inconclusive [inhibitor, single point] | – |
| Cc1nc2ccccn2c1C(=O)CSc1cccc(Cl)c1 | inconclusive [inhibitor, single point] | – |
| O=C(CCSc1ccccc1)Nc1ncccn1 | inactive | – |
| Cc1ccc(CN2CCSc3ccc(C(=O)NCC(C)c4ccccc4)cc32)cc1 (stereo not drawn) | inconclusive [inhibitor, single point] | – |
| Cn1c(N)c(C(=O)COC(=O)c2nc(Cl)ccc2Cl)c(=O)n(C)c1=O | inactive | – |
| COC(=O)CN1C(=O)CSc2ccc(S(=O)(=O)Nc3cccc(C)c3C)cc21 | inconclusive [inhibitor, single point] | – |

— PubChem BioAssay AID686979 (National Center for Advancing Translational Sciences (NCATS), 2013)
